Test results reported in paper PMC2765508 (Biochemistry, 2009).

Tested on: MP1
Details: 10 μM inhibitor; substrates β-endorphin, dynorphin A and leumorphin

effect on the rate of peptide hydrolysis or the distribution of cleavage products: no effect
Structure (SMILES): CC(C)C[C@H](NC(=O)[C@@H](O)[C@H](N)Cc1ccccc1)C(=O)O [bestatin]
